Results on six compounds are retold here after the supplement of paper PMC4604168 (melanoma cell lines).

Some of the results follow. Many values rest on one well or one pass, so single values are uncertain.
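Further: cells treated in 1,536-well plates, then fixed and DAPI-stained, with nuclei counted from automated high-throughput microscope images.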

For the assay, the system named is WM451Lu. In words: cell count relative to DMSO control; melanoma cells; higher = more viable cells. Conditions: library dose: standard library concentration; 72 h.
Compound `Cc1cc(Nc2cc(N3CCN(C)CC3)nc(Sc3ccc(NC(=O)C4CC4)cc3)n2)n[nH]1` [Tozasertib] + Cn1cncc1[C@@](N)(c1ccc(Cl)cc1)c1ccc2c(c1)c(-c1cccc(Cl)c1)cc(=O)n2C [tipifarnib] (first compound 0.03 µM, partner dose 0.05 µM) showed a cell count of 92.1%.

The compound `CC[C@]1(O)C[C@H]2CN(CCc3c([nH]c4ccccc34)[C@@](C(=O)OC)(c3cc4c(cc3OC)N(C=O)[C@H]3[C@@](O)(C(=O)OC)[C@H](OC(C)=O)[C@]5(CC)C=CCN6CC[C@]43[C@@H]65)C2)C1` [vincristine] + NC(=O)Nc1cc(-c2cccc(F)c2)sc1C(=O)N[C@H]1CCCNC1 [AZD7762] (first compound 0.0005 µM, partner dose 0.1 µM) came in with a cell count of 38.3%.

`Cc1cc(Nc2cc(N3CCN(C)CC3)nc(Sc3ccc(NC(=O)C4CC4)cc3)n2)n[nH]1` [Tozasertib] + CN(C)S(=O)(=O)c1ccc2c(c1)/C(=C/c1cc3c([nH]1)CCCC3)C(=O)N2 [SU6656] (first compound 0.03 µM, partner dose 2 µM): the cell count was determined as 83.9%.

The compound `N#CC[C@H](C1CCCC1)n1cc(-c2ncnc3[nH]ccc23)cn1` [ruxolitinib] + COc1cc2c(Oc3ccc4[nH]c(C)cc4c3F)ncnc2cc1OCCCN1CCCC1 [cediranib] (first compound 5 µM, partner dose 2 µM) had a cell count of 107%.

With `CC[C@]1(O)C[C@H]2CN(CCc3c([nH]c4ccccc34)[C@@](C(=O)OC)(c3cc4c(cc3OC)N(C=O)[C@H]3[C@@](O)(C(=O)OC)[C@H](OC(C)=O)[C@]5(CC)C=CCN6CC[C@]43[C@@H]65)C2)C1` [vincristine] + COc1cc2c(Oc3ccc4[nH]c(C)cc4c3F)ncnc2cc1OCCCN1CCCC1 [cediranib] (first compound 0.0005 µM, partner dose 2 µM), the cell count turned out to be 33%.

Take `CC[C@]1(O)C[C@H]2CN(CCc3c([nH]c4ccccc34)[C@@](C(=O)OC)(c3cc4c(cc3OC)N(C=O)[C@H]3[C@@](O)(C(=O)OC)[C@H](OC(C)=O)[C@]5(CC)C=CCN6CC[C@]43[C@@H]65)C2)C1` [vincristine] + O=C(Nc1cccc(Cl)c1)Nc1ncc(CCNc2ncnc3ccsc23)s1 [SNS314] (first compound 0.0005 µM, partner dose 0.004 µM): the cell count was determined as 34.7%.
